{"source": "PubChem BioAssay AID504339", "about": "(National Center for Advancing Translational Sciences (NCATS), 2011)", "note": "Hit rate of the full screen: of about 390,000 compounds, about 17,000 (4.4%) were called active. Inconclusive results, whose numbers are uncertain, are shown with a selection of clear calls. The call rests on the fitted dose curve; in most records, active means well fitted inhibition curve with a large enough effect; inconclusive means small, poorly fitted or top-dose-only effect; inactive means no such curve, though single readings can be large or run the other way. Where the call is inconclusive, the potency comes from a doubtful curve fit. Potency means the concentration at half of the fitted maximal effect; tags describe the fitted curve by direction and shape."}
{"molecular_target": "Lysine-specific demethylase 4A (Homo sapiens) (UniProt O75164)", "sequence (O75164 whole entry, looked up, the tested form may be a part)": "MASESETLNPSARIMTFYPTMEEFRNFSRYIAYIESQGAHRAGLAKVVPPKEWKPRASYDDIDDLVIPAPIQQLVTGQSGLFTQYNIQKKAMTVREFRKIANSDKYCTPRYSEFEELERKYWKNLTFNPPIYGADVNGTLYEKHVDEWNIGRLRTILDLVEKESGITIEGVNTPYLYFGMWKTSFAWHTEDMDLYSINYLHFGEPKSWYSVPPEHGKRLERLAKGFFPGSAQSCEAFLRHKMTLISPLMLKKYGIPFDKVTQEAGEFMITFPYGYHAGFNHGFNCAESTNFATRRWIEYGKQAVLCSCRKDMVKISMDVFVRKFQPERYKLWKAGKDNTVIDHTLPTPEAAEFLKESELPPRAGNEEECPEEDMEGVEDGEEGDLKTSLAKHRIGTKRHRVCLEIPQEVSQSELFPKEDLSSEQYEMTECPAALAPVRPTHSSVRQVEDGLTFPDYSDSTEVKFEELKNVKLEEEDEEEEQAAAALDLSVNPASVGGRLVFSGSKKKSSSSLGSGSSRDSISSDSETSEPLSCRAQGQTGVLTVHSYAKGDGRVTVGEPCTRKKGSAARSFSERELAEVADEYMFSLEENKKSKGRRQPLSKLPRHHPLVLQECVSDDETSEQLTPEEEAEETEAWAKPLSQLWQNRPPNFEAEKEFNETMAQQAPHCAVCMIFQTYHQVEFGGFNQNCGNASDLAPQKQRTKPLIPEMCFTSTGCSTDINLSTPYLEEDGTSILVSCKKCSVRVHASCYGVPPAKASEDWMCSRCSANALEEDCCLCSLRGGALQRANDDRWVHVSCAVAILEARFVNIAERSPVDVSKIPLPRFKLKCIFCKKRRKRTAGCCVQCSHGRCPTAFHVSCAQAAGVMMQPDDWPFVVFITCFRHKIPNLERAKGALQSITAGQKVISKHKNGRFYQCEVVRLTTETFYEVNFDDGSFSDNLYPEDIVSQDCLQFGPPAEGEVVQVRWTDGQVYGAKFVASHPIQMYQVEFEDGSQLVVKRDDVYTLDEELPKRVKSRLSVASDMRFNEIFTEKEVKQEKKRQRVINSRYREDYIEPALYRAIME", "assay": "qHTS Assay for Inhibitors of JMJD2A-Tudor Domain; further: nearly all actives have a fitted effect of over 50% in size", "settings": "AlphaScreen JMJD2A-Tudor / H3K4me3 peptide binding; series mostly up to 114 µM"}
{"smiles": "CCN1CCN(C(=O)c2ccc(Sc3ccccc3Cl)c([N+](=O)[O-])c2)CC1", "Potency": "inconclusive: 50.1 µM [inhibitor, partial curve]"}
{"smiles": "COc1ccc(S(=O)(=O)N(C)C)cc1NC(=O)CSc1ncccn1", "Potency": "inconclusive: 12.6 µM [inhibitor, full curve, poor fit]"}
{"smiles": "COc1ccc(CC(=O)N(C)CC(=O)Nc2ccccc2SC)cc1", "Potency": "active: 28.2 µM"}
{"smiles": "O=c1cc(-c2ccccc2)oc2ccc(Br)cc12", "Potency": "inactive"}
{"smiles": "CC(C)(C)CNC(=O)c1ccc2c(c1)S(=O)(=O)c1cc(Cl)ccc1C2=O", "Potency": "inconclusive: 31.6 µM [inhibitor, partial curve]"}
{"smiles": "C=Cc1ccc(Cn2c(C)c(CNCCc3ccc(OCC)cc3)c(C(=O)O)c2C)cc1", "Potency": "inconclusive: 50.1 µM [inhibitor, partial curve]"}
{"smiles": "COCCn1c(C)cc(/C=C2\\NC(=S)N(C)C2=O)c1C", "Potency": "inactive"}
{"smiles": "Cn1c(=O)c(C#N)c(-c2ccc(F)cc2)c2cc(C(=O)c3cc(Cl)cc(Cl)c3O)cnc21", "Potency": "active: 44.7 µM"}
{"smiles": "CCOc1c(C=C(C#N)C#N)c2ccccc2n1CC", "Potency": "inconclusive: 50.1 µM [inhibitor, single point]"}
{"smiles": "O=c1[nH]c2cc3c(cc2cc1CN(CCCO)Cc1nnnn1Cc1ccc(F)cc1)OCO3", "Potency": "inactive"}
{"smiles": "CCOc1cccc(/C(O)=C2/C(=O)C(=O)N(Cc3ccco3)C2c2ccncc2)c1", "note": "(stereo not given)", "Potency": "inconclusive: 70.8 µM [inhibitor, single point]"}
{"smiles": "Cc1ccc(-c2n[nH]c(=S)n2/N=C/C=C\\c2ccccc2[N+](=O)[O-])cc1", "Potency": "inconclusive: 50.1 µM [inhibitor, partial curve]"}
{"smiles": "COc1ccc(-n2cc(C(=O)O)c(=O)cc2C)cc1", "Potency": "inconclusive: 17.8 µM [inhibitor, full curve, poor fit]"}
{"smiles": "O=C(NCCCN1CCN(c2cccc(Cl)c2)CC1)c1ccc2nc(Cc3ccccc3)oc2c1", "Potency": "inconclusive: 28.2 µM [inhibitor, partial curve]"}
{"smiles": "O=C(O)c1ccc(COc2c(F)c(F)c(F)c(F)c2F)o1", "Potency": "inconclusive: 63.1 µM [inhibitor, partial curve]"}
{"smiles": "CCOC(=O)c1ccc(-n2c(O)c(/C=N/NC(=O)C3COc4ccccc4O3)c3ccccc3c2=O)cc1", "note": "(stereo not given)", "Potency": "inconclusive: 56.2 µM [inhibitor, partial curve]"}
{"smiles": "O=C(c1cccs1)N1CCCc2cc(NS(=O)(=O)c3cc(F)ccc3F)ccc21", "Potency": "inactive"}
{"smiles": "CN(C)c1ccc(/C=N/n2c(-c3cccnc3)n[nH]c2=S)cc1", "Potency": "active: 5.01 µM"}
{"smiles": "CC(=O)c1cccc(NC(=O)CCn2nc(C)c(S(=O)(=O)N3CCCCC3)c2C)c1", "Potency": "inactive"}
{"smiles": "CCOC(=O)c1[nH]c(C)c(CCC(=O)N2CCN(c3cc(C)ccc3C)CC2)c1C", "Potency": "inconclusive: 56.2 µM [inhibitor, partial curve]"}
{"smiles": "Cc1cc(CN2CCN(CCC#N)CC2)c(O)c(C2(C)CCCCC2)c1", "Potency": "inconclusive: 50.1 µM [inhibitor, partial curve]"}
{"smiles": "O=C(NC1CCCCCCC1)c1cc(-c2ccccn2)nc2ccccc12", "Potency": "inconclusive: 35.5 µM [inhibitor, partial curve]"}
{"smiles": "COc1ccc(C(=O)c2c3ccc(OC)cc3[n+]([O-])n2Cc2ccc(C(N)=O)cc2)cc1", "Potency": "inconclusive: 89.1 µM [inhibitor, partial curve]"}
{"smiles": "CCN(CC)c1ccc(N=Nc2nn(C)c(C)c2[N+](=O)[O-])cc1", "Potency": "inconclusive: 8.91 µM [inhibitor, partial curve]"}
{"smiles": "O=C1/C(=C\\c2ccc([N+](=O)[O-])cc2)CCc2ccccc21", "Potency": "inconclusive: 89.1 µM [inhibitor, single point]"}
{"smiles": "COc1ccc(-c2n[nH]c3c2C(c2ccccn2)N(C)C3=O)cc1", "note": "(stereo not given)", "Potency": "inactive"}
{"smiles": "Cc1cc2c(cc(C(=O)NCCCN3CCOCC3)n2Cc2ccc(Cl)cc2)o1", "Potency": "inconclusive: 56.2 µM [inhibitor, partial curve]"}
{"smiles": "Cc1ccccc1OCC(=O)N1CCN(C(=O)COc2ccccc2C)CC1", "Potency": "inactive"}
{"smiles": "CCCn1cnc2cc(NCc3ccc(Br)cc3)ccc21", "Potency": "active: 15.8 µM"}
{"smiles": "S=C(NCCc1ccccn1)Nc1cccc(Cl)c1", "Potency": "inactive"}
{"smiles": "COc1ccc(C(=O)OC2C(OC)OCC(O)C2O)cc1", "note": "(stereo not given)", "Potency": "inconclusive: 0.631 µM [inhibitor, full curve, poor fit]"}
{"smiles": "COc1ccc(OC)c(CCNC(=O)CCCn2c(=O)c3cccn3c3cccnc32)c1", "Potency": "inactive"}
{"smiles": "Cc1nc(-c2ccccc2)sc1C(=O)O", "Potency": "inconclusive: 89.1 µM [inhibitor, single point]"}
{"smiles": "Cn1c(SCC(=O)c2ccc(O)c(O)c2)nnc1-c1cccs1", "Potency": "active: 25.1 µM"}
{"smiles": "CC(=O)c1cccc(N=Nc2c(-c3ccccc3)[nH]n(-c3ccccc3)c2=O)c1", "Potency": "inconclusive: 3.55 µM [inhibitor, partial curve]"}
{"smiles": "CNC(=S)Nc1ccc(C23CC4CC(CC(C4)C2)C3)cc1", "Potency": "inconclusive: 44.7 µM [inhibitor, partial curve]"}
{"smiles": "CC1N(C)c2cc(NC(=O)c3ccco3)ccc2C1(C)C", "note": "(stereo not given)", "Potency": "inconclusive: 63.1 µM [inhibitor, partial curve, poor fit]"}
{"smiles": "CCN(CC(=O)NCc1cccs1)S(=O)(=O)c1ccc(F)c(F)c1F", "Potency": "inactive"}
{"smiles": "Cc1ccccc1N=Nc1c(C)[nH]n(C(N)=S)c1=O", "Potency": "inconclusive: 63.1 µM [inhibitor, partial curve, poor fit]"}
{"smiles": "Nc1c(-c2nc(-c3ccccc3Cl)no2)nnn1-c1ccccc1C(F)(F)F", "Potency": "inactive"}
{"smiles": "O=C(O)C(c1ccccc1)C1(O)CCC1", "note": "(stereo not given)", "Potency": "inactive"}
{"smiles": "CC1=C(c2ccc(C)c(C)c2)S(=O)(=O)N=C1N1CCC(C(=O)NCc2ccc(N(C)C)cc2)CC1", "Potency": "inconclusive: 50.1 µM [inhibitor, partial curve]"}
{"smiles": "CC(Oc1ccccc1)C(=O)Nc1c(C(=O)Nc2cccc(F)c2)oc2ccccc12", "note": "(stereo not given)", "Potency": "inactive"}
{"smiles": "COc1ccc(-n2c(Cc3cccn3C)nnc2SCC(=O)Nc2cc(C)cc(C)c2)cc1", "Potency": "inconclusive: 44.7 µM [inhibitor, partial curve]"}
{"smiles": "O=C(Cc1cccc(F)c1)N1CCOCC1", "Potency": "inactive"}
